This is an account of results in patent US20260158070A1, “COMPOSITIONS AND METHODS FOR THE TREATMENT AND DIAGNOSIS OF CANCERS ASSOCIATED WITH SURFACE K-RAS” (UNIVERSITY OF MARYLAND, BALTIMORE, priority 2023, published 2026).

“Also recorded” adds a separate entry of the source. Where two headings read alike, the source gives them in different places.

In assay [1] the test system is live Panc-1 cells. Kind of assay: High resolution confocal microscopy of surface K-Ras staining. In kind it is cell-based, human.
Assay [2] concerns PDX model PA0787 and PA1252 (human pancreatic cancer expressing the G12D Kras mutation). Kind of assay: In vivo staining of PDX tumor tissue after i.v. antibody injection (immunohistochemistry). Further details: species or system nude Balb/c mice. As to conditions: 10 mg/kg tail vein, 30 minutes. Here is the method:
Each mouse was inoculated subcutaneously in the right upper/lower flank with primary human tumor xenograft model tumor fragment (2-3 mm in diameter) for tumor development. Once the tumors reached approximately 500 mm^3 the mice were injected with antibodies as described below.
30 minutes later the mice were euthanized, and the tumors were harvested and frozen in optimal cutting temperature (OCT) freezing media for immunohistochemical evaluation.
The tumors were sectioned into 5 um sections on a standard dermatome and processed for immunohistochemistry. Briefly, cryosections were fixed with cold acetone/methanol (at a 1:1 dilution) solution for 5 minutes. After washing sections in PBS for 15 minutes, sections were blocked with 10% normal goat serum at room temperature for 45 minutes and incubated with secondary goat anti-human IgG (Alexa fluro 488 Invitrogen A-11013) at room temperature for 45 minutes. ProLong™ Gold Antifade Reagent with DAPI (Catalog P36931 ThermoFisher Scientific) was added before putting the cover slides on. Images were acquired with the Leica Microsystems DM6B-Z.

Assay [3] has as its system RASless MEFs rescued with wild-type K-Ras 4B. Briefly: Flow cytometry surface staining with anti-K-Ras antibodies. The assay is classed as cell-based, mouse. The following applies: 10 μg/ml antibody, 30 minutes on ice.
Assay [4] deals with human tumor cell line PANC-1. Kind of assay: Cell line-derived xenograft model of pancreatic cancer, in vivo ADC experiment. Further details: species or system Balb/c nude mice. As to conditions: 10 mg/kg i.v. QW × 2 weeks; gemcitabine 50 mg/kg i.p. BIW × 2 weeks. The protocol:
DXd is a protease cleavable linker attached to a derivative of exatecan that acts as topoisomerase I inhibitor. DXd targeted to cancer cells by antibodies as an ADC has been used by FDA-approved […] is a conjugation of anti-Her-2 antibody and deruxtecan. DXd was conjugated via stochastic maleimide conjugation to interchain cysteines of the antibodies. The antibodies were first reduced using 10× molar equivalents of 10 mM TCEP at 37° C. for 90 minutes with shaking. The reduced antibodies were then conjugated with 10× molar equivalents of 10 mM DXd at room temperature for 2 hours. Conjugated antibodies were evaluated for the drug to antibody ratio (DAR) by reducing 10 μg of the crude conjugate with DTT at 37° C. for 30 minutes. The final DAR for the conjugated antibodies was 8. The multimeric state of the conjugated antibodies was evaluated by size exclusion chromatography and confirmed to be monomeric. Conjugated antibodies were purified from unconjugated DXd by dialysis against PBS, pH 5.6 with a 10K molecular-weight cut-off (MWCO) membrane for 48 hours. Next, we utilized a cell line-derived xenograft model of pancreatic cancer, where the human tumor cell line PANC-1 was implanted into Balb/c nude mice. The nude mouse is a naturally mutated mouse that lacks a thymus and hair (nude). […]

The subject of assay [5] is MHC Class I-deficient Panc-1 cell line. Briefly: Surface K-Ras staining of MHC Class I-deficient cells. The following applies: beta-2 microglobulin excised by CRISPR-Cas-9. The assay is classed as cell-based, human. From the text:
It has been previously described that peptide fragments of both mutant and wild-type K-Ras can be presented at the cell surface in the context of self MHC Class I (PMID: 36099883, PMID: 27959684, PMID: 34272369).

For assay [6], the system named is Panc-1. Briefly: Flow cytometry surface staining with anti-K-Ras antibodies. In kind it is cell-based, human. As to conditions: 10 μg/ml antibody, 30 minutes on ice. In general terms: In flow cytometry, cells or beads pass a laser one at a time.
For assay [7], the system named is RASless MEFs rescued with G12V K-Ras 4B. The assay is described as above. In kind it is cell-based, mouse. The following applies: 10 μg/ml antibody, 30 minutes on ice.
Assay [8] concerns MiaPaca-2. The description is as above. In kind it is cell-based. The following applies: 10 μg/ml antibody, 30 minutes on ice.
Assay [9] has as its system RASless MEFs rescued with wild-type K-Ras 4A. The assay is described as above. The assay is classed as cell-based, mouse. As to conditions: 10 μg/ml antibody, 30 minutes on ice.
The test system of assay [10] is RASless MEFs rescued with G12D mutant K-Ras 4B. The assay is described as above. As to conditions: 10 μg/ml antibody, 30 minutes on ice. In kind it is cell-based, mouse.
The test system of assay [11] is Additional G12D K-Ras tumor cell lines. Briefly: Flow cytometry surface staining, multiple tumor cell lines (FIG. 2f). The assay is classed as cell-based.
For assay [12], the system named is cells from normal or fibrotic lung tissue. Briefly: Flow cytometric analysis of surface K-Ras from primary human tissue. The assay is classed as cell-based. As to conditions: single donor. The protocol:
Human tissue from cancerous sites, as well as adjacent normal tissue, were banked right after surgical procedure. Tissues were immediately processed according to the following protocol to isolate single cells. Briefly, each tissue was cut into very small segments using a sterile blade. Then tissues were resuspended in RPM11640 complete media (with 10% FBS, 1× penicillin-streptomycin) and run in MACS dissociator (Milteny Biotech) for 2 cycles of 1 min each to initiate dissociation. Next the tissues were digested in digestion media consisting of IMDM media, supplemented with collagenase type 2 (0.5 mg/ml) and DNase (0.5ul/sample). The total digestion media volume used was 7 ml for each tissue size of 1 mg. Next the tissues, immersed in digestion media was shaken at 37° C. for 35 min at 850 rpm. Following digestion, the tissues were run again in gentle MACS dissociator to break up the digested tissue and retrieve single cells. Cells were next washed twice in 1×PBS to eliminate any digesting enzyme and DNase. Cells were passed through a 70 uM strainer and resuspended in RPMI complete media. Single cell suspensions obtained from patients as set forth in Example 1 can be used for flow cytometric analysis.

B1: Human Anti-K-Ras Antibody 1: Full HC SEQ ID NO: 9, full LC SEQ ID NO: 13 (antibody)
heavy: EVQLVQSGGGVVQPGRSLRLSCAASGFTSRHPGMHWVRQAPGKGLEWVAVISHDGSKKYYADSVKGRFTISRDNSKNTLFVQLSSLRPEDTAVYYCATSLYSSMDLWGQGTTVTVSSASTKGPSVFPLAPSSKSTSGGTAALGCLVKDYFPEPVTVSWNSGALTSGVHTFPAVLQSSGLYSLSSVVTVPSSSLGTQTYICNVNHKPSNTKVDKKV[human IgG1 Fc with changes left out]
light: QSVVTQPPSVSAAPGQKVTISCSGSNSNIGKNYVSWFQQVPGTAPKLLIFEDNQRPSGIPDRFSASKSGTSASLAISGLQSEDEADYYCAAWDDKFGVHWVFGGGTKLTVLGQPKAAPSVTLFPPSSEELQANKATLVCLISDFYPGAVTVAWKADSSPVKAGVETTTPSKQSNNKYAASSYLSLTPEQWKSHRSYSCQVTHEGSTVEKTVAPTECS
As for B1, the “surface staining by confocal microscopy” value is listed as “Surface staining of live Panc-1 cells with Human Anti-K-Ras Antibody 1 was also observed” in assay [1] and “distinct KRAS staining” in assay [1] (listed as anti-KRAS antibody). In addition, the “tumor staining vs isotype control antibody” value in assay [2] (PDX model PA0787) and in [2] (PDX model PA1252) was “better tumor staining” each time. Moreover, the “surface staining / binding” value in assay [3] is “demonstrated binding”; in assay [7] it was “but not G12V K-Ras 4B”; in assay [9], “demonstrated binding”; in assay [10] it was “staining was evident on the surface; also recorded: demonstrated binding”. Further, the “tumor growth (tumor volume)” value in assay [4] was “showed decreased tumor growth over isotype treated mice”. In addition, in [5], the “staining compared to the MHC Class I-sufficient parental cell line” value is listed as “identical staining”. Further, the surface staining entry in assay [6] is reported as “staining was evident on the surface”; in assay [8], “staining was evident on the surface”; in assay [11], “also showed surface staining”. In addition, the “K-Ras surface expression, fibrotic vs normal lung tissue” value in [12] is “increase in K-Ras surface expression”.

B2: Human Anti-K-Ras Antibody 2: Full HC SEQ ID NO: 17, full LC SEQ ID NO: 21 (antibody)
heavy: EVQLLEPGGGVVQPGRSLRLSCTNSGFSFSGYAMHWVRQAPGKGLEWVAVISFDGSHKYYADSVKGRFTISRDNSKNTLYLHMNSLRAEDTAVYYCASGGNYYGSGTIVSHGMDVWGQGTTVTVSSASTKGPSVFPLAPSSKSTSGGTAALGCLVKDYFPEPVTVSWNSGALTSGVHTFPAVLQSSGLYSLSSVVTVPSSSLGTQTYICNVNHKPSNTKVDKKV[human IgG1 Fc with changes left out]
light: QSVLTQPASVSGSPGQSITISCTGTSNDIGAYNYVSWYQQHPGKAPKLMIYDVNNRPSGVPDRFSGSKSGNMASLTISGLQAEDDADYYCSSYTSSSTLVVFGGGTKLTVLGQPKAAPSVTLFPPSSEELQANKATLVCLISDFYPGAVTVAWKADSSPVKAGVETTTPSKQSNNKYAASSYLSLTPEQWKSHRSYSCQVTHEGSTVEKTVAPTECS
In the case of B2, the surface staining entry in assay [6] and in assay [8] was “staining was evident on the surface” each time. In assay [10], the “surface staining / binding” value was “staining was evident on the surface”. Besides, the “K-Ras surface expression, fibrotic vs normal lung tissue” value in assay [12] is on record as “increase in K-Ras surface expression”.
